PubChem BioAssay (NCI)
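Five concentrations, 48 hours, 96-well plates. GI50 is the concentration that inhibits growth by half. At the TGI there is no net growth.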

System: NCI-H322M lung
Experiment: NCI anticancer screen, dose series, 48 h

Row | SMILES | GI50 [µM] | TGI [µM]
1 | COc1cc(/C=C/C(=O)c2ccc(S(=O)(=O)NCCNc3nc(Nc4ccc(F)cc4)nc(N(C)C)n3)cc2)cc(OC)c1OC | 10.1 | 43.9
2 | O=C1NC(=NC23CC4CC(CC(C4)C2)C3)N/C1=C\c1ccc2ncccc2c1 | 2.94 | > 100
3 | COc1ccc(-c2nc3cc(C)ccc3n2CC(=O)N=Nc2c(O)[nH]c3ccc(Br)cc23)cc1 | 2.5 | 12
